Test results reported in paper PMC11995724, “Antibiotic target discovery by integrated phenotypic and activity-based profiling of electrophilic fragments” (Cell chemical biology, 2025).
In all, about 3,200 compounds went through this assay and about 75 (2%) showed an effect of 50% or more. This is one part of the list.

Tested on: T1, S. aureus MSSA476
T1 construct: MSSA476
Design: species or system S. aureus MSSA476 (TSB) or V. cholerae SAD30 (LB); 384-well bacterial growth screen at 25 uM, OD600 relative to DMSO control
Settings: relative growth, OD600, TSB; 25 µM; inhibitor

Structure (SMILES) | % of control remaining [%]
N#CC(=Cc1cccc(Oc2ccccc2)c1)C(=O)NC(N)=O [8-D07, {2-cyano-2-[(3-phenoxyphenyl)methylidene]acetyl}urea] | 113.195
CCc1cccc(CC)c1NC(=O)C(C#N)=Cc1ccc(C)o1 [8-P11, 2-cyano-N-(2,6-diethylphenyl)-3-(5-methylfuran-2-yl)prop-2-enamide] | 145.062
C=CC(=O)NCc1c(C)nc2ccccn12 [1-C08, N-({2-methylimidazo[1,2-a]pyridin-3-yl}methyl)prop-2-enamide] | 105.846
CC(=Cc1ccccc1)C=C(C#N)C(=O)NC1CC1 [9-F12, 2-cyano-N-cyclopropyl-4-methyl-5-phenylpenta-2,4-dienamide] | 106.367
CC(Cl)C(=O)N(C)Cc1cc(Cl)cn1C (centres unmarked) [6-P21, 2-chloro-N-[(4-chloro-1-methyl-1H-pyrrol-2-yl)methyl]-N-methylpropanamide] | 90.8293
CC(C)c1ccccc1NC(=O)CCl [4-F06, 2-chloro-N-[2-(propan-2-yl)phenyl]acetamide] | 113.197
C=CC(=O)N1CCC(C(=O)Nc2cccc(N3CCCC3=O)c2)CC1 [2-H04, N-[3-(2-oxopyrrolidin-1-yl)phenyl]-1-(prop-2-enoyl)piperidine-4-carboxamide] | 104.091
Cc1ccc(Oc2ccc(NC(=O)CCl)cc2)cc1 [4-K03, 2-chloro-N-[4-(4-methylphenoxy)phenyl]acetamide] | 86.8985
C=CC(=O)NC(Cc1nc(C)no1)c1ccccc1 (centres unmarked) [1-B22, N-[2-(3-methyl-1,2,4-oxadiazol-5-yl)-1-phenylethyl]prop-2-enamide] | 122.022
Cc1cc(C(=O)CCl)c(F)cc1F [10-O03, 2-chloro-1-(2,4-difluoro-5-methylphenyl)ethan-1-one] | 143.438
N#CC(=Cc1ccncc1)C(=O)Nc1cccc(Cl)c1 [8-B19, N-(3-chlorophenyl)-2-cyano-3-(pyridin-4-yl)prop-2-enamide] | 109.212
C=CC(=O)N1CCC(C(=O)NCc2ccccc2)CC1 [1-I05, N-benzyl-1-(prop-2-enoyl)piperidine-4-carboxamide] | 97.0549
COc1ccc(N2C(=O)C=CC2=O)c([N+](=O)[O-])c1 [10-L11, 1-(4-methoxy-2-nitrophenyl)-2,5-dihydro-1H-pyrrole-2,5-dione] | 100
C=CC(=O)NCc1ncoc1C(F)(F)F [3-E18, N-{[5-(trifluoromethyl)-1,3-oxazol-4-yl]methyl}prop-2-enamide] | 106.922
O=C(CCl)NC1CCC(c2nc(-c3ccccc3)n[nH]2)CC1 (centres unmarked) [6-G19, 2-chloro-N-[4-(3-phenyl-1H-1,2,4-triazol-5-yl)cyclohexyl]acetamide] | 89.4634
Cc1ccc(NC(=O)C(C#N)=Cc2ccccc2OC(F)F)c(C)c1 [9-K17, 2-cyano-3-[2-(difluoromethoxy)phenyl]-N-(2,4-dimethylphenyl)prop-2-enamide] | 71.9101
Cc1ccc(NC(=O)C2CSCN2C(=O)CCl)c(C)c1 (centres unmarked) [5-M07, 3-(2-chloroacetyl)-N-(2,4-dimethylphenyl)-1,3-thiazolidine-4-carboxamide] | 111.475
C=CC(=O)N1CCC(C(=O)NCC(O)c2c(F)cccc2F)CC1 (centres unmarked) [2-P14, N-[2-(2,6-difluorophenyl)-2-hydroxyethyl]-1-(prop-2-enoyl)piperidine-4-carboxamide] | 92.9504
CC(Cl)C(=O)N1CCC(Cc2ccccc2)CC1 (centres unmarked) [5-K21, 1-(4-benzylpiperidin-1-yl)-2-chloropropan-1-one] | 82.3315
O=C(CCl)NCc1ccc(C(=O)N2CCOCC2)cc1 [5-L14, 2-chloro-N-{[4-(morpholine-4-carbonyl)phenyl]methyl}acetamide] | 83.4244
CC(Cl)C(=O)N(c1cccc(C#N)c1)C1CCC1 (centres unmarked) [6-N22, 2-chloro-N-(3-cyanophenyl)-N-cyclobutylpropanamide] | 85.3659
CC(Cl)C(=O)N(C)c1ccccc1 (centres unmarked) [5-D06, 2-chloro-N-methyl-N-phenylpropanamide] | 107.104
CC(C)NC(=O)C(C#N)=Cc1ccc(C(C)C)cc1 [9-I11, 2-cyano-N-(propan-2-yl)-3-[4-(propan-2-yl)phenyl]prop-2-enamide] | 89.588
CC(C)c1noc2ncc(C(=O)N3CCSSCC3)cc12 [10-F21, 5-[3-(propan-2-yl)-[1,2]oxazolo[5,4-b]pyridine-5-carbonyl]-1,2,5-dithiazepane] | 115.625

Structure (SMILES) | % of control remaining [%]
C=CC(=O)N(C)CC(=O)N1CCN(c2ccccc2[N+](=O)[O-])CC1 [2-L04, N-methyl-N-{2-[4-(2-nitrophenyl)piperazin-1-yl]-2-oxoethyl}prop-2-enamide] | 93.2985
O=C(CN(CC1CCCO1)C(=O)CCl)N1CCCC1 (centres unmarked) [7-D18, 2-chloro-N-[2-oxo-2-(pyrrolidin-1-yl)ethyl]-N-[(oxolan-2-yl)methyl]acetamide] | 96.3893
Cn1ccnc1C(NC(=O)CCl)c1ccccc1 (centres unmarked) [4-H20, 2-chloro-N-[(1-methyl-1H-imidazol-2-yl)(phenyl)methyl]acetamide] | 163.888
CC(Cl)C(=O)NCC1CCN(C)c2ccccc21 (centres unmarked) [7-J11, 2-chloro-N-[(1-methyl-1,2,3,4-tetrahydroquinolin-4-yl)methyl]propanamide] | 101.099
COc1cc(C=C(C#N)C(=O)Nc2c(C)cc(C)cc2C)cc(OC)c1 [8-A18, 2-cyano-3-(3,5-dimethoxyphenyl)-N-(2,4,6-trimethylphenyl)prop-2-enamide] | 102.241
Cl.NC(=O)c1ccccc1N1CCC(NC(=O)CCl)CC1 [7-P14, 2-[4-(2-chloroacetamido)piperidin-1-yl]benzamide hydrochloride] | 99.529
N#CC(=Cc1ccc(O)cc1)C(=O)Nc1ccc(Cl)cc1Cl [9-G22, 2-cyano-N-(2,4-dichlorophenyl)-3-(4-hydroxyphenyl)prop-2-enamide] | 78.2022
O=C(CCl)Nc1ccccc1Cc1ccccc1 [4-N22, N-(2-benzylphenyl)-2-chloroacetamide] | 81.1815
C=CC(=O)Nc1cnc2cc(C)nn2c1 [2-M13, N-{2-methylpyrazolo[1,5-a]pyrimidin-6-yl}prop-2-enamide] | 109.312
C=CC(=O)N(C)Cc1nc2c(cnn2C)c(=O)[nH]1 [3-L08, N-methyl-N-({1-methyl-4-oxo-1H,4H,5H-pyrazolo[3,4-d]pyrimidin-6-yl}methyl)prop-2-enamide] | 105.529
CC(Cl)C(=O)N(Cc1ccsc1)C1CC1 (centres unmarked) [7-G11, 2-chloro-N-cyclopropyl-N-[(thiophen-3-yl)methyl]propanamide] | 90.1099
O=[N+]([O-])c1ccccc1S(=O)(=O)N1CCSSCC1 [10-N09, 5-(2-nitrobenzenesulfonyl)-1,2,5-dithiazepane] | 124.688
C=CC(=O)N1CCC(c2nc(C3CCC3)no2)CC1 [2-O04, 1-[4-(3-cyclobutyl-1,2,4-oxadiazol-5-yl)piperidin-1-yl]prop-2-en-1-one] | 99.5648
C=CC(=O)NCc1nc2cc(F)ccc2o1 [3-N20, N-[(5-fluoro-1,3-benzoxazol-2-yl)methyl]prop-2-enamide] | 121.55
C=CC(=O)N1CCCC(CNC(C)=O)C1 (centres unmarked) [3-E15, N-{[1-(prop-2-enoyl)piperidin-3-yl]methyl}acetamide] | 90.9012
C=CC(=O)NCCC(=O)N1CCSC(C)(C)C1 [3-G18, N-[3-(2,2-dimethylthiomorpholin-4-yl)-3-oxopropyl]prop-2-enamide] | 102.046
C=CC(=O)Nc1ccc(-c2nc3cc(C)ccc3o2)cc1 [1-D20, N-[4-(5-methyl-1,3-benzoxazol-2-yl)phenyl]prop-2-enamide] | 123.78
CC(Cl)C(=O)Nc1cc(Cl)c(Cl)cc1Cl (centres unmarked) [4-N13, 2-chloro-N-(2,4,5-trichlorophenyl)propanamide] | 91.8533
O=C(CCl)Nc1ccc(-c2ccccc2)cc1 [4-N10, N-{[1,1'-biphenyl]-4-yl}-2-chloroacetamide] | 105.193
CCOC(=O)c1[nH]c(C)c(C(=O)CCl)c1C [10-A10, ethyl 4-(2-chloroacetyl)-3,5-dimethyl-1H-pyrrole-2-carboxylate] | 136.563
O=C(CCl)Nc1ccc(S(=O)(=O)N2CCCCC2)cc1 [4-H06, 2-chloro-N-[4-(piperidine-1-sulfonyl)phenyl]acetamide] | 103.287
C=CC(=O)N1CCCC2(CCCCO2)C1 (centres unmarked) [3-O09, 1-{1-oxa-8-azaspiro[5.5]undecan-8-yl}prop-2-en-1-one] | 90.5529
N#CC(=Cc1ccc(-c2ccccc2Cl)o1)C(=O)N1CCCCC1 [8-F20, 3-[5-(2-chlorophenyl)furan-2-yl]-2-(piperidine-1-carbonyl)prop-2-enenitrile] | 110.871
